# Measured values published in the BET-seq Pho4 binding data (Le et al. 2018).
# Some of the results follow. Values were computed here from the reads of four pooled replicates and scatter widely.
# Biological target: T1, Pho4 (S. cerevisiae) (UniProt P07270)
# T1 sequence: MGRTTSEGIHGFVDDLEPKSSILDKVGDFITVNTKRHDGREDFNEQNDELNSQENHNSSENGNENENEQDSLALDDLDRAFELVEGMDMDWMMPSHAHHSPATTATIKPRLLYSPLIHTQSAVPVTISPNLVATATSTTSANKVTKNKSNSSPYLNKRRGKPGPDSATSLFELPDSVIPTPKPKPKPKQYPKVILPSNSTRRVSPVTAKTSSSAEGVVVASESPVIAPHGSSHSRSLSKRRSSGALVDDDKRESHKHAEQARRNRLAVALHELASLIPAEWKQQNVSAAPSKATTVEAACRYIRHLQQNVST
# Assay: relative binding free energy (BET-seq); higher = weaker binding
# Settings: reference: library average
row,Sequence,relative binding free energy [kcal/mol]
1,AGGCGCACGTGTGATG,-0.14
2,AATGTCACGTGGGTTT,0.13
3,GGAGACACGTGGGGCA,-0.19
4,TATGACACGTGATGCG,0.17
5,GGCGGCACGTGCTTTG,-0.11
6,TCGGTCACGTGGTTAT,0.13
7,GGGGGCACGTGTCTGC,-0.12
8,TAATTCACGTGTAAAA,0.34
9,TAGGACACGTGTGCGA,-0.05
10,GGGTACACGTGGTTGT,0.14
11,TGCTGCACGTGTGGTT,0.11
12,GTATACACGTGGTGAG,-0.02
13,ATGACCACGTGTTTTT,0.04
14,GTACGCACGTGGAGTG,-0.05
15,TGAATCACGTGTAGTT,0.28
16,TGTTGCACGTGTACAT,0
17,GTGTCCACGTGAGTTT,0.36
18,TGAGTCACGTGGGCGT,0.07
19,TAGATCACGTGCTGTA,0.09
20,TAGATCACGTGTGTAA,0.18
21,GAGGTCACGTGTTTGA,0.15

row,Sequence,relative binding free energy [kcal/mol]
1,AGTGTCACGTGTTGTC,-0.05
2,ACTAGCACGTGTGTGA,-0.04
3,CTGGTCACGTGCTGTT,0.11
4,GCGTGCACGTGTTTAT,-0.04
5,GCTTGCACGTGTTGGA,0.05
6,CTTGGCACGTGTCGTA,-0.11
7,ACGGACACGTGTGGGA,0.01
8,TATTGCACGTGATCTT,0.02
9,ATAATCACGTGGGACG,0.07
10,AAGCGCACGTGGTGTG,-0.17
11,TGTAGCACGTGTCGCG,-0.14
12,GTTATCACGTGGTTCG,0.25
13,TTAAACACGTGATGTT,0.07
14,ATTAGCACGTGATGTT,0.13
15,GGAATCACGTGTGTAA,0.25
16,AGATTCACGTGGTCTG,0.16
17,AGAGGCACGTGTGCTA,-0.15
18,CTGTGCACGTGGAGTG,0.04
19,GGTGTCACGTGAGGAG,0.25
20,TAGCGCACGTGGTATG,-0.2
21,TGTGGCACGTGAGATG,0.13

row,Sequence,relative binding free energy [kcal/mol]
1,TTAACCACGTGTGAGT,0.04
2,CGTAGCACGTGTGGTT,-0.08
3,CTGAACACGTGGTAGT,0.04
4,TCAGGCACGTGTTGTG,-0.07
5,GTTCTCACGTGGCTGT,0.19
6,AATGGCACGTGAGGTC,0.05
7,GCGGTCACGTGATAGT,0.32
8,GAGTGCACGTGGGCAG,-0.2
9,TGGGCCACGTGGTTTG,0.02
10,TGATGCACGTGGCGCT,-0.09
11,ATCGGCACGTGCAGTT,-0.03
12,GACCGCACGTGGGGGG,-0.02
13,TACATCACGTGGTTTA,0.13
14,TAGTGCACGTGTAAAG,0.01
15,GTAGTCACGTGCTTTG,0.09
16,GTCAGCACGTGAGTAG,0.2
17,TCGTTCACGTGTCAGT,0.34
18,GAGACCACGTGGGGGT,-0.14
19,ATGAACACGTGGTGAG,0.05
20,CATTACACGTGGTAGG,0.01
21,GCTGTCACGTGATGTA,0.17
